Assay results as given in PubChem BioAssay AID1918953 (Molecular Pharmacology Branch, DTP, NCI, 2023).
For part of its entries the source gives two or more results. The other results are left out here. There may be further records. Values that stand side by side are repeats in other runs, samples, wells, individuals or studies. Marks such as [2022-09] give the month of the run.

Tested on: MDA-MB-231 complex spheroid viability
Assay: Anticancer human tumor MDA-MB-231/ATCC cell line growth inhibition;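 further: drug exposure lasted 7 days starting on day 3 of spheroid growth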
Details: for IC50: compound alone; for viability, T/C: stronger effect = lower value
Source text: Multicellular complex tumor spheroid response to LSD1 Inhibitor Iadademstat in combination with a variety of drugs and investigational agents in selected tumor cell lines
The current study was undertaken to assess response to LSD1 inhibitors in combination with standard-of-care drugs and investigational agents in solid tumor complex spheroid models as well as in the K-562 leukemia. Complex spheroids include a stromal component modeled by human endothelial cells (HUVEC) and fibroblasts modeled by human mesenchymal stem cells (MSCs). The concentration ranges selected for each drug and investigational agent were based upon clinically achievable concentrations if the clinical Cmax of the agent was known.
Compounds. The drugs and investigational agents used in this study are listed on Table 1. All of the agents used, including staurosporine (NSC755774) and gemcitabine (NSC613327), were obtained from the Developmental Therapeutics Program, NCI. FDA-approved anticancer drugs are available from the NCI at http://dtp.nci.nih.gov/branches/dscb/oncology_drugset_explanation.html. Drugs and investigational agents were >95% pure by proton nuclear magnetic resonance (NMR) and liquid chromatography/mass spectrometry (LC/MS). Stock solutions were prepared at 400x in DMSO, stored at -70 degrees C, and diluted in fresh medium prior to their use. The final concentration of DMSO in cell culture wells never exceeded 0.25% (v/v). The FDA-approved anticancer drug set is available from the Developmental Therapeutics Program at https://dtp.cancer.gov/organization/dscb/obtaining/available_plates.htm. All drugs and investigational agents were tested over a range starting from a high concentration at or near the clinical Cmax and decreasing in half-log increments. If the clinical Cmax for an agent had not been determined, the highest concentration tested was 10 microM.
Cell Lines. The patient-derived cancer cell (PDC) lines: 292921-168-R-J2-PDC, K24384-001-R-PDC, and 521955-158-R2-J5-PDC pancreatic carcinomas, 556581-035-R-J1 ovarian carcinoma, 324938-238-R-J1-PDC, 855422-203-R-J1-PDC and 883617-216-R-J1-PDC urothelial bladder carcinomas, 743489-274-T-PDC renal cell carcinoma, 138582-R-J1 Merkel cell tumor, K60290-347-R-J1 and K57222-313-R-J1-PDC glioblastomas, 653999-131-R-J2-PDC, LG0703-F948-PDC, and 349418-098-R-PDC non-small cell lung carcinomas, 885512-296-R-J2-PDC, 171881-019-R-J1-PDC breast carcinomas and 186277-243-T-J2-PDC and 233499-124-R-J2-PDC colon carcinomas were obtained from the NCI Patient-Derived Models Repository (PDMR, https://pdmr.cancer.gov). The established cell lines NCI/ADR-RES (RRID:CVCL_14520 and OVCAR-5 (RRID:CVCL_1628) ovarian carcinomas, 786-O (RRID:CVCL_1051) and A498 (RRID:CVCL_A498) renal cell carcinoma, NCI-H211 (ATCC, cat. CRL-5824; RRID:CVCL_1529), NCI-H196 (ATCC, cat. CRL-5823, RRID:CVCL_1509), SW 1271 (ATCC, cat. CRL-2177, RRID:CVCL_1716) and NCI-H1876 (ATCC, cat. CRL-5902, RRID:CVCL_1503) small cell lung carcinomas, MDA-MB-231 (RRID:CVCL_0062) and MDA-MB-468 (RRID:CVCL_0419)breast carcinomas (10-12). Pooled donor human umbilical vein endothelial cells (HUVEC, Lonza, cat. CC-2519) and human mesenchymal stem cells (hMSC, Lonza, cat. PT-2501) were purchased from Lonza (Walkersville, MD).
Cell Culture. All cells were maintained in an incubator at 37 degrees C and 5% CO2 with 95% humidity. The PDC lines were cultured according to standard operating procedures established by the NCI PDMR (https://pdmr.cancer.gov). Briefly all PDCs were thawed and cultured in Matrigel-coated flasks prepared with a working solution of 1X Ham's F-12 nutrient mix, without supplementation (Invitrogen, Waltham, MA, cat. 11765054), 100 U/mL penicillin-streptomycin (Invitrogen, cat. 15140122), and 2.5% Matrigel (Corning Inc., Corning, NY, cat. 354248) for the first three passages. […]

Question: Which IC50 does the source give for `CC1COCCN1c1cc(-c2ccnn2C)c2ccnc(-c3ccn[nH]3)c2n1` (configuration not stated) here?
Answer: The IC50 was 36.7 nM [2022-01] and < 3.16 nM [2022-02].

Question: For `CC(C)CC(NC(=O)C(Cc1ccccc1)NC(=O)c1cnccn1)B(O)O` (configuration not stated), which viability, T/C (compound alone 0.001 µM) is on record?
Answer: Its viability, T/C is 54.1% [2022-01] and 0.34% [2022-02].

Question: `NC1CC1c1ccc(-c2cccc(O)c2)cc1` (configuration not stated) was tested. Which IC50 (drug combinations, run of 02/01/2022) did it give?
Answer: Its IC50 is > 10 µM, 8.31 µM, 9.79 µM, 7.59 µM, 6.71 µM, 9.99 µM, 5.95 µM, 3.5 µM, 4.67 µM, 8.8 µM, 7.22 µM, 8.63 µM, 5.82 µM, 6.26 µM.

Question: With `NC1CCC(NC2CC2c2ccccc2)CC1` (configuration not stated) as the compound, how does the viability, T/C (compound alone 3.16 µM) read?
Answer: The viability, T/C was 87.1, 86.5, 86.3, 85.5, 79.7, 84.2, 81.8, 80.9, 83, 91.6, 74.2, 76.7, 80.2, 83.5, 84.7, 65, 75.6, 77.5, 92.9, 89.9, 83.4, 75.9, 72.8, 89.5, 88.1%.

Question: For `O=C(C=Cc1cccc(S(=O)(=O)Nc2ccccc2)c1)NO`, which viability, T/C (compound alone 3 µM) is on record?
Answer: The viability, T/C was 0.72% [2022-01] and 88.2% [2022-02].

Question: `CCN(c1cc(-c2ccc(CN3CCOCC3)cc2)cc(C(=O)NCc2c(C)cc(C)[nH]c2=O)c1C)C1CCOCC1` was tested. Which IC50 did it give?
Answer: Its IC50 is > 3 µM [2022-01] and 191 nM [2022-02].

Question: Which viability, T/C (compound alone 10 µM) does the source give for `CC1(C)CCC(CN2CCN(c3ccc(C(=O)NS(=O)(=O)c4ccc(NCC5CCOCC5)c([N+](=O)[O-])c4)c(Oc4cnc5[nH]ccc5c4)c3)CC2)=C(c2ccc(Cl)cc2)C1` here?
Answer: Its viability, T/C is 33.9% [2022-01] and 1.78% [2022-02].
